The results in this text go back to a collection of fitness landscapes (doi:10.1016/j.celrep.2020.107928).

To fix the notation:
B1: Caulobacter ParB omega fusion; a variant is named by its letters at X, in order, B8GW30 (parent)
chain: MESVVVGEPGMSEGRRGLGRGLSALLGEVDAAPAQAPGEQLGGSREAPIEILQRNPDQPRRTFREEDLEDLSNSIREKGVLQPILVRPSPDTAGEYQIVAGERAWRAAQRAGLKTVPIMVRELDDLAVLEIGIIENVQRADLNVLEEALSYKVLMEKFERTQENIAQTIGKSXSHVANXMRLLXLPDEVQSYLVSGELTAXHARAIAAAADPVALAKQIIEGGLSVRETEALARKAPNLSAGKSKGGRPPRVKDTDTQALESDLSSVLGLDVSIDHRGSTGTLTITYATLEQLDDLCNRLTRGI

Whole data set: some 81,000 sequences, median “one-hybrid fitness for binding NBS DNA” near -0.1, cut for the highest 2% near 0.36. This is one part of the list. Bounds are passed on as bounds.

The variants in the assay derive from B1. The experiment in a line: one-hybrid fitness for binding NBS DNA (the Noc-binding site; scaled: cognate 1, non-cognate 0); higher = stronger binding. As to conditions: with NBS DNA site. A digest of the protocol: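 Bacterial one-hybrid selection in E. coli USO rpoZ- hisB- pyrF- with a HIS3 reporter carrying the site 19 bp from the promoter, screening Caulobacter ParB libraries with four specificity codons randomised (NNS). Cells grew 48 hours at 37°C on M9-minus-histidine plus 0.1 mM IPTG and 5 mM 3-AT. Plasmids before and after selection were Illumina-sequenced, three replicate libraries pooled, and variants under 10 reads dropped. Fitness is the log change in variant-to-wild-type read ratio, rescaled to cognate 1, non-cognate 0.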
With LSIV, the “one-hybrid fitness for binding NBS DNA” value is ≤ 0.2. With LFTS the figure was ≤ 0.2. With EKEY the figure was ≤ 0.2; with YNLH, ≤ 0.2; with AAIC, ≤ 0.2. With QNEL the figure was ≤ 0.2. Regarding EVIS, the “one-hybrid fitness for binding NBS DNA” value is ≤ 0.2.

Take TRNN: the “one-hybrid fitness for binding NBS DNA” value was ≤ 0.2. WWDG: the “one-hybrid fitness for binding NBS DNA” value is ≤ 0.2.

For RCEN, the “one-hybrid fitness for binding NBS DNA” value was ≤ 0.2.

For TQPC, the “one-hybrid fitness for binding NBS DNA” value was ≤ 0.2.

On to ISLL, for which the “one-hybrid fitness for binding NBS DNA” value is ≤ 0.2. With SMFR the figure was ≤ 0.2; with PFQW, ≤ 0.2; with LATQ, ≤ 0.2. As for GIVS, the “one-hybrid fitness for binding NBS DNA” value was ≤ 0.2. With PYRI the figure was ≤ 0.2. As to RTPN, the “one-hybrid fitness for binding NBS DNA” value was ≤ 0.2. On to RKEA, for which the “one-hybrid fitness for binding NBS DNA” value was ≤ 0.2. With ECLC the figure was ≤ 0.2; with ASCA, ≤ 0.2. With ALRT the figure was ≤ 0.2. With NREA the figure was ≤ 0.2; with TQRE, ≤ 0.2; with PPVR, ≤ 0.2.

On to IRFN, for which the “one-hybrid fitness for binding NBS DNA” value was ≤ 0.2.

Regarding RSID, the “one-hybrid fitness for binding NBS DNA” value is ≤ 0.2.

For WGPD, the “one-hybrid fitness for binding NBS DNA” value was ≤ 0.2. With MPDS the figure was ≤ 0.2. On to PLAY, for which the “one-hybrid fitness for binding NBS DNA” value is ≤ 0.2.

With ELFR, the “one-hybrid fitness for binding NBS DNA” value is ≤ 0.2.

Turning to NMGG, the “one-hybrid fitness for binding NBS DNA” value is ≤ 0.2. In the case of LVQR, the “one-hybrid fitness for binding NBS DNA” value is ≤ 0.2. With RDPG the figure was ≤ 0.2. As for SFGT, the “one-hybrid fitness for binding NBS DNA” value is ≤ 0.2. As for PRPQ, the “one-hybrid fitness for binding NBS DNA” value was ≤ 0.2.

With WYSS, the “one-hybrid fitness for binding NBS DNA” value was ≤ 0.2.

Consider AHPW, for which the “one-hybrid fitness for binding NBS DNA” value was ≤ 0.2.

Take PLDN: the “one-hybrid fitness for binding NBS DNA” value is ≤ 0.2.

As for TRIH, the “one-hybrid fitness for binding NBS DNA” value is ≤ 0.2. With GHMG the figure was ≤ 0.2; with PMWT, ≤ 0.2.

With RFCS, the “one-hybrid fitness for binding NBS DNA” value was ≤ 0.2. With RAVH the figure was ≤ 0.2; with LLMW, ≤ 0.2. On to TDHV, for which the “one-hybrid fitness for binding NBS DNA” value was ≤ 0.2. With EPHT the figure was ≤ 0.2; with LSKQ, ≤ 0.2; with QYLN, ≤ 0.2. With PKLG the figure was ≤ 0.2; with STMR, ≤ 0.2. With MNHT the figure was ≤ 0.2; with QPPS, ≤ 0.2; with MSQV, ≤ 0.2. On to ANNF, for which the “one-hybrid fitness for binding NBS DNA” value is ≤ 0.2. With QFSS the figure was ≤ 0.2; with IDEV, ≤ 0.2. With SEGN the figure was ≤ 0.2; with GAIA, ≤ 0.2.

As for HRHH, the “one-hybrid fitness for binding NBS DNA” value was ≤ 0.2. In the case of RYNG, the “one-hybrid fitness for binding NBS DNA” value was ≤ 0.2.

As for RVGR, the “one-hybrid fitness for binding NBS DNA” value was found to be 0.491. Turning to FRVR, the “one-hybrid fitness for binding NBS DNA” value is ≤ 0.2. With PHEC the figure was ≤ 0.2. Regarding QNYA, the “one-hybrid fitness for binding NBS DNA” value is ≤ 0.2. With TPTQ the figure was ≤ 0.2; with MAIR, ≤ 0.2; with TAHF, ≤ 0.2.

As for PWMF, the “one-hybrid fitness for binding NBS DNA” value was ≤ 0.2. With AIHN the figure was ≤ 0.2. For SGPL, the “one-hybrid fitness for binding NBS DNA” value is ≤ 0.2.

As to RQTK, the “one-hybrid fitness for binding NBS DNA” value was ≤ 0.2. For the variant PPHK, the “one-hybrid fitness for binding NBS DNA” value is ≤ 0.2. Consider QPPV, for which the “one-hybrid fitness for binding NBS DNA” value is ≤ 0.2. Regarding TINI, the “one-hybrid fitness for binding NBS DNA” value was ≤ 0.2. As to RHAH, the “one-hybrid fitness for binding NBS DNA” value is ≤ 0.2. With FGTL the figure was ≤ 0.2.
